Laboratory results as given in the supplement of paper PMC4466236.
Whole data set: some 33,000 sequences, median “E-score (dimensionless, -0.5 to 0.5)” near -0.058, cut for the highest 2% near 0.35. This is one part of the list.

Each sequence was assayed on MvaT (assay: PBM 8-mer E-score (mean of HK and ME arrays) (E-score (dimensionless, -0.5 to 0.5)); higher = stronger relative binding preference; most listed sequences are background and not binding sites).
Method in brief: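 Full-length P. aeruginosa MvaT, with glutathione S-transferase fused to its N-terminus (cloned into pTH6838 by isothermal assembly), was tested by protein binding microarray using a previously described protocol. Two universal double-stranded 60-mer arrays (ME and HK) were used, each with a constant 25-mer primer region and a variable 35-mer region covering all 8-mers. The rank-based 8-mer E-score (-0.5 to 0.5) is the mean of the two arrays, parsed with a custom Python script.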

Sequence	PBM 8-mer E-score
TATGCAGA	0.119
CATTAAGA	0.255
GTAAGTGA	0.118
CGATATGA	0.0112
ACTTGCTA	0.182
ACAGGTTC	-0.208
AAGTAGGA	0.000117
CGATACCG	-0.086
CCCATCGA	-0.102
AAGGTCCC	-0.342
ACGGTAAC	-0.0728
ATCCGGGA	-0.128
GCTCTGAA	-0.0802
ATAGTCAC	-0.0846
AGTGTCCG	-0.142
AGGATATC	-0.0693
CGATTCAA	-0.0643
ACGAATCT	-0.0679
GCCACAAA	-0.0396
CAGACCGA	-0.176
CTTGATCA	-0.0803
GGGCTCAC	-0.315
ATCACACC	-0.0388
CATGTGGA	-0.224
CTCTACAC	-0.0361

Sequence	PBM 8-mer E-score
ACCAGGTC	-0.195
AGACGAAC	-0.107
ATTATCAG	0.354
AGATGTAC	0.0861
ATTAAATA	0.421
ATACAGGC	0.0924
CCTGCAAC	-0.158
AGGGTAAC	0.0337
CGATGAGA	-0.14
AGCAGGTA	-0.0448
GTATAGAC	0.0564
CCTATGTA	0.175
GCAGATGA	-0.166
ACCAAGGC	-0.135
CAAACCGG	0.0302
CGCAAACG	-0.0969
CGGCGCTA	-0.183
CTCGTGAC	-0.262
ACGACCAA	-0.0422
AAATTTCT	0.148
CCTATGCA	-0.113
CACAGAGG	-0.0767
GGACCTAC	-0.156
ACACTTCG	0.0727
CCTGGCCG	-0.209

Sequence	PBM 8-mer E-score
GCTTGGAA	0.0318
AGGTAATG	-0.0373
AATTTAAA	0.443
CAACGGTC	-0.201
AGAGGCGA	-0.142
ACACGTAC	-0.0933
GAGCAATC	-0.165
GGAGGCCA	-0.145
ACCTTCTA	-0.175
GCCCCATA	-0.0208
AGAGGCAA	-0.165
CCAACAGA	-0.0305
GCTAGGAA	-0.167
CCTACGCG	-0.159
AGTGCTCG	-0.127
CGGGTTTA	0.15
AGCGGGGA	-0.0985
ACACCGCT	-0.0267
CATTCTAG	0.135
ATCTCGAG	-0.0243
GGGCTAAA	0.0916
CACCTACC	-0.238
CAGAAAAA	-0.0701
ATATGGTG	0.226
GCTTCCGA	-0.116

Sequence	PBM 8-mer E-score
CTCTGTAA	-0.0285
ACCCCCAG	-0.264
GTGAATTA	0.264
GACCAGTA	-0.108
CCAACTTC	0.232
ACAGAGGT	-0.141
CTTAGAGC	-0.22
AGCTTCCA	-0.151
ACAGGCCT	-0.178
CGTAACAC	0.0804
CGTTGAAC	0.0146
GGGTGGTA	-0.157
AGCGATAA	-0.0184
TCTCGCCA	-0.251
CCACACGC	-0.0967
GACCACGC	-0.0979
CTGGTAGA	-0.0635
CGTGCTAC	-0.00682
ACCTGGTC	-0.187
CGTTGTTC	0.108
CAAGTAAA	0.245
CGGGGTAA	-0.0262
CATTCGGA	-0.0283
CCATCCAA	-0.0159
ACAATTTC	0.19

Sequence	PBM 8-mer E-score
ATCTGCCG	-0.0663
AGCCCGCG	-0.335
ATTTTTTA	0.157
AATGTATG	0.286
GGGAAACA	0.102
CCGAACGA	-0.246
GACCGGAA	0.0217
CATCCATG	-0.0436
GATCGCCA	-0.0416
TGTCGGAA	0.0192
AAAGCGTG	-0.15
AGGGCGAA	-0.147
CAAACGAC	0.0654
CCAGCCCA	-0.258
CCTGAGGC	-0.235
GCGTGTCA	-0.108
GCCCGGGC	-0.259
ACTCCAGA	-0.0377
CTTGAAAC	-0.0601
CACTCTTA	0.116
GACACCTC	-0.252
ATGCGCAC	-0.0214
CTTCGACA	-0.0699
AGAACGAT	-0.115
ACTAGTAG	0.0918

Sequence	PBM 8-mer E-score
ACACTCTA	0.139
ATCGTACA	0.0903
AGGTCTCA	-0.352
CATCCTAG	-0.149
AGGAAGAG	-0.188
CGGAATAC	0.0866
GAGAGTGA	-0.102
AAATGTCA	0.108
ACCCGTCT	-0.123
ACGGAGAG	-0.191
TCCTCACA	0.017
TACTAAAA	0.335
CCAAGGCG	-0.258
ATAAGTAC	0.305
ACAGAGGC	-0.128
GACACCGC	-0.2
CCGCAGAC	-0.181
CGTTTTTC	0.0732
ATTAAGGG	0.205
GAGTCAAC	-0.213
AAGGATAT	0.165
TGAGTGCA	-0.183
AAGAAGGA	-0.186
AATTAGGA	0.0771
AATTTTTA	0.34

Sequence	PBM 8-mer E-score
AACACCCG	0.00525
ACACCGCA	-0.047
CCCGCAAG	-0.138
GCCTGCGA	-0.156
CGTGTTTA	0.152
CGCGGACA	-0.0919
CGCTTTAC	-0.101
AACGGGGA	-0.0679
GCCAAGGA	-0.241
CTGTTAGC	-0.0149
GCGGGAGA	-0.251
GCAATTGA	0.182
TCATCCAA	0.0567
AATGAACT	0.148
CAGTATAG	0.0504
AAAGATGA	0.215
CACACGGC	-0.249
ACTAAATC	0.135
CGCGCGCC	-0.318
CAAAACGC	-0.105
CAATCACC	-0.0923
AAGATGAC	0.0274
AGATTGAG	0.0741
GGAAGTGA	-0.0751
AAAAGCTG	0.0083

Sequence	PBM 8-mer E-score
ACAAACAT	0.306
CGAACGGA	-0.271
CACATGAC	-0.0215
AATAATGT	0.408
ACACGGGT	-0.00739
ATTCAGTA	0.103
ATGTCTTA	0.181
CCAGCTAA	-0.0731
CCAGAGTC	-0.0329
GTAACGCA	0.0117
GACCGGCA	-0.0452
GTGATGAA	-0.0288
ACCTACAC	0.0215
GTAATGCA	0.255
TCCCAAGA	-0.125
GACCCGGA	-0.112
CCAAGTGC	-0.0358
GGAATCAA	0.0726
ACACGCCC	-0.0817
GACATGGC	-0.23
CATACCCG	-0.127
GAGTACAA	0.138
CCCGAGCA	-0.181
CGGACAAC	-0.0812
ATAGTGAA	0.168

Sequence	PBM 8-mer E-score
AAGTCGGT	0.101
GCGCTAAA	0.122
GTTCGTTA	0.0979
CGATTTAG	0.0547
GGCACTAC	-0.0989
GAGTCGCC	-0.26
ACTATTCC	0.149
ATGTGCGG	-0.158
GGTACTGA	0.00299
CGGTTGAG	-0.119
GGCGTTGA	-0.0479
CAACACAG	-0.0835
GTTACTGA	0.0954
GGCCGAGA	-0.189
TGCTGGAA	-0.0509
ACCTTGCC	-0.104
ACGCCAAC	0.0447
AGAACACG	-0.104
AACGCGTA	0.0628
